Measurements: the supplement of paper PMC3334620
Over roughly 33,000 sequences, “E-score (-0.5 to 0.5)” has its median near -0.054; the highest 2% begin near 0.35. This is one part of the list.

Target: T1, Stb5 (UniProt P38699)
T1 sequence: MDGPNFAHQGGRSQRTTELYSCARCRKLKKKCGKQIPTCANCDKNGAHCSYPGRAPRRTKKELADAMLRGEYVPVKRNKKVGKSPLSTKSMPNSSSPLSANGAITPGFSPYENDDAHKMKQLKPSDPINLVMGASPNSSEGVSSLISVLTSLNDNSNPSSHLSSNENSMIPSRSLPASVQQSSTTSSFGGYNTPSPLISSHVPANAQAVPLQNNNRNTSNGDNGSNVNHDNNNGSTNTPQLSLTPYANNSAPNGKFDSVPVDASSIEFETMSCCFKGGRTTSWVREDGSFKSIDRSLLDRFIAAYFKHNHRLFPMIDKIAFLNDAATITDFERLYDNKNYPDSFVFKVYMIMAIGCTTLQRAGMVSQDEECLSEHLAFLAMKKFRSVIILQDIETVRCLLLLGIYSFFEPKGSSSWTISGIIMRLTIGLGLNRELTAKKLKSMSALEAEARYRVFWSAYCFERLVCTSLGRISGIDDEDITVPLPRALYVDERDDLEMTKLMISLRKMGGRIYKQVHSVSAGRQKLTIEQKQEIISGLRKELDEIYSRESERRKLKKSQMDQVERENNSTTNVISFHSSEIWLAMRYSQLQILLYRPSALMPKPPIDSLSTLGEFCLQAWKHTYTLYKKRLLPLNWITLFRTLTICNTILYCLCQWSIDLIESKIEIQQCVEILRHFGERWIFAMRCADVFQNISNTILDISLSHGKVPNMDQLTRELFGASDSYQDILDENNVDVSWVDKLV
Test: PBM E-score (8-mer binding enrichment) (E-score (-0.5 to 0.5)); higher = stronger / more preferred TF binding; most listed sequences are background and not binding sites
Conditions: protein concentration: 200 nM; construct: GST-full length
Procedure: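 Universal 'all 10-mer' protein binding microarrays (Agilent AMADID 015681) probed with GST-tagged S. cerevisiae TFs (full-length or DBD) made by in vitro transcription/translation (PURExpress), about 100-200 nM. Bound TF was detected with fluorescent anti-GST. Each ungapped 8-mer (which stands for itself and its reverse complement) is scored by the PBM enrichment score (E-score), a modified Wilcoxon-Mann-Whitney statistic from -0.5 to +0.5, computed with the Universal PBM Analysis Suite. Scale: above 0.35 generally sequence-specific binding.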

Sequence	PBM E-score
CTAGGGAG	-0.225
CTAGAACA	0.0985
CCGTAAGA	0.238
ACCTTAGC	-0.196
GGGCCCCC	0.0572
TGAGCGAA	0.0158
AACCCCGA	0.473
AGGGTCAT	-0.253
AGCGTACG	0.0455
CTGGCTGA	-0.144
GTGTAGTA	0.064
AACGTCGT	-0.0144
TCAACCGA	-0.00247
CAGTATGG	-0.119
AAACTGGA	-0.0551
CATTACAA	-0.122
AAACATAT	-0.00796
CAGCGTAA	-0.168
CCACAGTC	-0.22
CGATCGTC	0.119
AAGTGCCA	-0.182
GGATGCAA	-0.0713
CGAAAAAC	0.0935
GTTGTGGA	-0.19
CCCGTCCC	0.298

Sequence	PBM E-score
GTAACTGA	-0.31
CGAGCATA	-0.142
CAAGGCTC	-0.243
GAACTGGC	-0.0133
ACTACGCG	0.0657
AGACCACA	-0.0795
CCGAATCG	0.136
AGAAGAGC	-0.128
AAACGTCG	0.173
AATTATGT	-0.0796
AGAGACGA	-0.0973
ACCGTTCC	0.273
CCGTGAGC	0.196
CACCAGTA	-0.15
GCAGTGGC	-0.117
ATAGGGGC	-0.0427
ACTGGCGC	-0.0545
CCCTTCTA	-0.218
CGCGGACG	0.27
GGCACAGA	-0.0495
AGCCGCCT	0.0174
ACTCTGAT	0.0813
ACGCTTTG	0.013
GCTATCCC	0.0835
AGCGTAAG	-0.00496

Sequence	PBM E-score
AGGACCAG	-0.23
ATCACGAG	-0.24
AAGCAAAT	-0.191
CAGCCTAG	-0.289
ATCGTTGC	-0.147
ATTGAACG	-0.00043
CTGGTAAA	-0.0707
ATGACTAC	-0.223
CTAAGCGA	-0.0741
GCGCAGCA	0.0948
GCTCCTAC	0.0251
CCAGTAAG	-0.113
AGCTAGGC	0.0259
ACGTCCCA	-0.36
CATGTCGC	0.0189
GGTACGGA	0.0961
AGGGTAGA	-0.181
ACTGCGAA	-0.0835
ACAAGATA	-0.171
CGCCAACG	0.131
AGCCCCCG	0.173
GGACGGAA	0.133
GGTTGCCA	-0.0319
GCAGCGAC	-0.0206
AGTGCTAT	-0.213

Sequence	PBM E-score
CAATGAGG	-0.338
CAATAGGC	0.0353
CTGTATGC	-0.06
GGGGGGAA	-0.0531
GAAAGATC	-0.00696
GAGGGGCA	-0.157
GGAAGGTA	0.0413
GAGTAACC	-0.0272
CCACCTCG	0.0784
AAAAGTAA	-0.129
ACTGCCTA	-0.203
ACATCCAG	-0.275
AGGTGAAT	0.0734
CGATAGCC	0.0261
CACGACGG	0.168
CCGAAAGG	0.163
CCTGTTCG	-0.199
GGGATTCA	0.0852
AACTTCAT	-0.185
TGTATGAA	0.0366
CTCGTATA	-0.154
CCAATGCA	-0.189
AGAGAAAC	-0.117
AGAACCCC	0.219
TAACGTCA	-0.278

Sequence	PBM E-score
CTGGGGCA	-0.314
GTAAACGA	-0.0384
GCGAGAAA	-0.225
GTGACTGA	-0.313
AACCGGCC	0.264
AAGGCGCA	-0.0282
GCGGTGTA	0.421
CTAGAAAG	-0.0959
AGATACCT	-0.0664
TGAATGAA	-0.0678
CGACTTTA	0.022
ATATCAGC	0.215
GGGCAATA	0.185
AACGTGTA	-0.181
AAAGACGG	0.168
CACTCAAA	-0.0629
CGGGCAGA	0.223
AGAAGACG	-0.0553
GAACAACA	-0.137
CTTTCTAC	-0.0885
CAGTGCGG	0.23
CTAAACTC	0.198
TCATTACA	-0.0362
ATTACATA	-0.322
AGATTACT	-0.0148

Sequence	PBM E-score
AACTGGAA	-0.1
CGCCTTCA	-0.00421
CCGCTTGC	0.285
CATCAATC	-0.082
GAGGAACC	-0.105
AGTGTGTG	-0.332
ACGCACCT	-0.0301
AATATGGA	-0.115
CACCCCGC	0.394
ATACAGCC	0.098
ATTGAGGC	-0.099
CATGGTTC	-0.0461
CTTGTGAC	-0.0707
CCATACCA	-0.0288
ATGGACCG	0.165
CAGGTTCC	-0.142
AGCTCAGA	-0.165
ACTTGGCC	-0.0112
GGTCTTAC	0.273
CCAGGAAA	-0.207
AGAACGCG	0.0577
CGCGCGAA	-0.051
ACCATCTG	0.0158
CCTTCCTA	-0.246
CCACTGTC	-0.366

Sequence	PBM E-score
AGTTAAAG	-0.131
TGCTAGCA	0.0477
GCACACTA	-0.2
CGCTTCTA	0.135
CCCGAAGG	0.0865
AAGTGCGA	0.187
CCGCCTTC	0.167
GCGTTTAA	0.248
ACCGTGGC	0.0612
ATGATGAC	-0.101
AATCAAAG	-0.207
CAGGGCTA	-0.0647
AACACATG	-0.349
CTCAGCAA	-0.11
AATTAAAG	-0.0529
AGTCTATA	-0.0672
ACATTCCG	0.0624
GACGGCGA	0.243
AACGAAGT	-0.268
AAGCGAAA	-0.179
AAATGCGC	0.151
GTGCAATA	-0.0549
AACCGTTA	-0.101
GACCCATA	0.0505
GATAATGA	-0.00701

Sequence	PBM E-score
AGGTGTCC	-0.164
AAGAAAGT	0.0793
ACTCTATA	0.12
CATCGTAA	-0.00169
GGTCATCA	-0.138
ACTCACGC	-0.19
ACGATCGG	0.298
CCTGAGAC	-0.115
CGCCGTTC	0.306
AGGGACCC	-0.199
GAGCTACA	-0.044
CATATATA	0.0805
AGTAAAGC	-0.087
TCCTTTCA	-0.109
AACAGGAC	-0.151
AACCGCCG	0.362
AGACAATG	-0.135
ATTTCGCA	0.0103
AAGGTCTG	-0.17
CCAATTCG	-0.018
AGTAAGCC	-0.0363
AGATAAGC	-0.142
CGTAAGTA	0.0307
CTCACATC	-0.222
CCCAAAGG	0.00351

Sequence	PBM E-score
CAACCAAA	-0.018
AGGGAGAA	-0.243
ACAAGTAG	-0.0363
AACTCTAC	-0.243
CCACTACA	-0.14
CATTGCTA	-0.116
CCTCTTAA	0.00462
GCTCCGAC	0.271
ATCTGGGC	-0.0319
ATTCTGCA	-0.123
ATGCGCCA	-0.08
AGACGTTC	-0.202
ACCTAAAG	0.037
GTCAAGAC	-0.0663
CCAAACCG	0.0404
GACCGCAC	0.18
TGGCACCA	-0.218
CTTATCGC	0.0666
ACGGTTCC	-0.0233
ATTGTGGG	-0.183
GCAGTCCA	-0.0621
AGCGCGAT	-0.0144
ATATGTAA	-0.222
ATAATGGG	-0.107
CAAGATAA	0.0613

Sequence	PBM E-score
CGGACGAC	0.0486
ACTCCGTA	0.35
AGACCAGC	-0.285
CTGTAATC	-0.0549
AGAGATCA	-0.288
ATCGAAAT	-0.0708
ACGGAACT	0.266
CAAGTTCG	-0.00682
ATCGACTA	-0.257
CAAGATGA	-0.286
TAACGGGA	0.179
ACCCAAGG	0.0955
TATCAGCA	0.00155
ACTGGTCT	-0.216
CGCAGTTA	0.359
AATAAGCC	0.183
CCGCCTGA	0.262
ATGAGCAT	-0.314
CAGGTTTA	-0.0038
AGCGATGA	0.0899
ATGAGAAA	-0.172
TAAGACGA	-0.179
CAGATATC	-0.0024
ACAAAGTC	-0.0542
ACGGTGCC	0.372

Sequence	PBM E-score
AGTGTCAA	-0.277
ACTAGACT	-0.108
CCCGCACG	0.325
ACCTAGGT	-0.115
AGTGAAAA	0.0421
CCGCTGAC	0.312
GAATCACC	0.1
GTATCGCA	0.00152
CGGGACCG	0.259
GTAGCCGA	-0.0178
CACCTGCA	-0.159
ACAGACGC	0.113
ACCCTTTC	-0.0486
GCCTCGTA	-0.0888
GAACGTGA	-0.134
CATGCTAA	-0.271
GACGCTCC	0.0687
GGGCGCCC	0.147
CGTCGGAG	0.343
CTAATGCA	-0.185
ATAAACCG	0.0621
CACGTCTC	-0.106
GCCTGAAA	-0.0422
GCGCACCC	0.162
ACACACGG	0.192

Sequence	PBM E-score
AACCGACC	0.244
GAATAACC	0.122
ATGCTGAG	-0.167
CAACGCAG	-0.151
TAACTGGA	-0.116
GCCGTGCA	0.133
GGCCTACC	0.0269
ATGAGTAC	-0.0338
CCTAGGTC	-0.15
AACTTTTA	0.0894
CCTCGTAC	-0.0393
CTGTCAAG	-0.196
CCTCAAAA	-0.0199
GCTTTACC	0.0586
CTGACAAG	-0.0926
GGAACCCC	0.19
CTAATATA	0.12
AAGACGCC	0.178
AGGCCAGG	-0.259
ATCAAAAG	-0.0706
TCAATCGA	-0.112
ATCCCAAA	-0.115
AGAAACAG	-0.16
CAGAGTGG	-0.19
AAAGTAGT	-0.142

Sequence	PBM E-score
CATTAGGG	-0.205
GATTACCA	0.0331
AGACGCCT	-0.304
ACGTAGTG	-0.0954
ACATCACA	-0.199
AACTACTA	-0.067
GCGTCAGA	-0.036
GCCGATTA	0.214
ATTGCCCC	0.14
CCAGGCCC	-0.181
CCTACTAC	0.0452
AAGATCGA	-0.116
CTCGTCCA	-0.102
AATGTGAT	-0.0209
GTCATGAA	-0.103
AGGCTACT	-0.218
ACGGTCGC	0.135
GATTCACC	0.23
GTCGACCA	0.14
AGCGCACC	0.12
AGGGTGTA	-0.236
AAATGAGG	-0.21
GCCTCGCC	-0.169
ATGTCGAC	-0.176
AAACTCCG	0.463

Sequence	PBM E-score
GTATATAC	0.107
ACCTTTAA	-0.0406
TCGACGCA	-0.196
CTGTCATC	-0.0509
CATTAAGC	-0.117
CCGAACAC	0.109
GTGTAACA	0.206
TCGTAAGA	-0.0428
AAGAGAAT	-0.0105
ATTGCTAC	-0.00551
AAGTATGA	-0.139
CGGGAACC	0.0496
AAGTGTTC	-0.217
GTAGTCAA	0.0132
GGATAGCC	-0.119
GCCCCTAC	0.076
AGTTAAAA	0.0662
ACAAGGTA	-0.0411
AATAGCGC	0.217
